Source: PubChem BioAssay AID588453 (National Center for Advancing Translational Sciences (NCATS), 2011)
Among all 390,000 compounds or so, about 4,000 (1%) were called active. The inconclusive results got no clear call from the source; some entries with a clear call stand among them for comparison. The call rests on the fitted dose curve; in most records, active means well fitted inhibition curve with a large enough effect; inconclusive means small, poorly fitted or top-dose-only effect; inactive means no such curve, though single readings can be large or run the other way. Where the call is inconclusive, the potency comes from a doubtful curve fit.

Molecular target: Thioredoxin reductase 1, cytoplasmic (Rattus norvegicus) (UniProt O89049)
Chain of UniProt O89049 (O89049 whole entry, looked up): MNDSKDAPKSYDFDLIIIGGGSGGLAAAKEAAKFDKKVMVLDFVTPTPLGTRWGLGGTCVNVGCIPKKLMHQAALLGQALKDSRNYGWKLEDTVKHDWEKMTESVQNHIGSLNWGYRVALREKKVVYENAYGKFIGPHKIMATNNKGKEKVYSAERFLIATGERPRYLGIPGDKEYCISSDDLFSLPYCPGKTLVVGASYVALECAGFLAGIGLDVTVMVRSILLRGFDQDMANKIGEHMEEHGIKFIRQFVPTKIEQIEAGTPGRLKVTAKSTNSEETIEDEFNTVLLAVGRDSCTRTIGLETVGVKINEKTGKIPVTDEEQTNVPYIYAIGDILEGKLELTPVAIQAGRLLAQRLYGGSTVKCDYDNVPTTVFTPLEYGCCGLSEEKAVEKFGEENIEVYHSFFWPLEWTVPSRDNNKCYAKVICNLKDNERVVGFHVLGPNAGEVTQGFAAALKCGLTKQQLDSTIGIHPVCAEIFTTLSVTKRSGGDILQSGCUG
Assay: qHTS Assay for Inhibitors of Mammalian Selenoprotein Thioredoxin Reductase 1 (TrxR1): qHTS; further: nearly all actives have a fitted effect of over 65% in size
Details: recombinant rTrxR1, NADPH fluorescence consumption, selenite substrate; series mostly up to 114 µM; activity change, negative = inhibition: at the top concentration
Method in brief: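 Rat TrxR1 (90 nM in the dispensed reagent) was pre-reduced with 400 uM NADPH for 5 min at room temperature, then incubated with compound for 15 min. After 400 uM selenite was added, NADPH fluorescence (Ex 340/Em 450 nm) was followed for 8 min.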
On the % scale 0 is the no-effect control and ±100 the full control effect; potency means the concentration at half of the fitted maximal effect; tags describe the fitted curve by direction and shape.

Compound	Potency	activity change, negative = inhibition
COc1ccc(-c2cc(C(=O)NCC(c3ccco3)N(C)C)c3ccccc3n2)cc1OC (configuration not stated)	inconclusive: 70.8 µM [inhibitor, single point]	–
S=C(NCCc1ccccc1)Nc1ccccc1Cl	inconclusive: 22.4 µM [inhibitor, single point]	–
COc1cccc(OC)c1OCc1cc(C2C3CCCC=C3C(C#N)=C(N)C2(C#N)C#N)c(C)cc1C (configuration not stated)	inconclusive: 22.4 µM [inhibitor, partial curve, poor fit]	–
CCN(CC)S(=O)(=O)c1ccc2c(c1)N(CC(=O)Nc1c(C)cc(C)cc1C)C(=O)C1CCCN21 (configuration not stated)	–	inactive: 17.6% [at 57.1 µM]
O=C(CCc1ccccc1)NCc1ccc2c(c1)CCN2C(=O)c1ccc(Cl)cc1	–	inactive: 15.1% [at 57.1 µM]
COc1cccc(N2[C@@H](CC(=O)O)c3cc(C(F)(F)F)ccc3S2(=O)=O)c1	inconclusive: 31.6 µM [inhibitor, partial curve]	–
C[C@H](N)c1nnc(SCC(=O)N(C)C)o1	inconclusive: 70.8 µM [inhibitor, single point]	–
COc1ccc(CN2CCNC(=O)C2CC(=O)N(C)Cc2ccon2)c(F)c1 (configuration not stated)	inconclusive: 44.7 µM [inhibitor, partial curve]	–
COc1cc(OC)cc(C(=O)NCc2n[nH]c(=S)n2-c2ccccc2)c1	–	inactive: -18.1%
Oc1cc2ccccc2cc1-c1n[nH]c(=S)o1	–	inactive: 12.3% [at 57.1 µM]
COc1ccc(/C(O)=C2/C(=O)C(=O)N(CCCC(=O)O)C2c2ccc(OC)c(OC)c2)cc1 (configuration not stated)	inconclusive: 89.1 µM [inhibitor, single point]	–
CN1CCN(/C=C2\SC(=S)NC2=O)CC1	inconclusive: 31.6 µM [inhibitor, partial curve, poor fit]	–
N#CC(c1ccc(F)cc1)c1ccc(C(=O)c2ccc(F)cc2)cc1 (configuration not stated)	–	inactive: 0.15%
O=C(CSc1nc(-c2ccc(F)cc2)cs1)NC(=O)NCc1ccco1	inconclusive: 79.4 µM [inhibitor, single point]	–
CCn1c(CNc2cccc(Cl)c2)nnc1SCc1ccccc1	inconclusive: 31.6 µM [inhibitor, partial curve, poor fit]	–
CN(C)c1oc(-c2ccccc2[N+](=O)[O-])nc1C#N	inconclusive: 79.4 µM [inhibitor, partial curve]	–
COc1cc2cc(CNc3ccccc3)c(=O)n(CC(=O)Nc3cc(C)cc(C)c3)c2cc1OC	–	inactive: -11.9%
Cc1ccc(-c2oc3ccccc3c(=O)c2O)cc1	–	inactive: 5.36% [at 57.1 µM]
C[C@H](CO)N1C[C@H](C)[C@@H](CN(C)S(C)(=O)=O)Oc2ccc(NC(=O)C3CC3)cc2C1=O	–	inactive: 2.21%
Cc1c(C(=O)NCC(c2ccco2)N2CCCC2)sc2ccccc12 (configuration not stated)	–	inactive: 17.3%
COc1ccc(C2C(C(C)=O)=C(O)C(=O)N2c2nc3ccccc3s2)cc1OC (configuration not stated)	–	inactive: -0.378%
Oc1ccc(N2CCN(c3ncnc4sc(-c5ccccc5)cc34)CC2)cc1	–	inactive: 19.7% [at 57.1 µM]
O=C1c2ccccc2C(=O)c2c(O)c(O)cc(O)c21	–	inactive: -6.3%
Cc1ccc(-c2nc3ccccn3c2Nc2ccc3c(c2)OCO3)o1	inconclusive: 44.7 µM [inhibitor, partial curve]	–

Compound	Potency	activity change, negative = inhibition
O=c1oc2cc(O)ccc2cc1-c1ccc(F)cc1	inconclusive: 39.8 µM [inhibitor, single point]	–
O=C(/C=C/c1cn(CC(O)CN2CCCCCC2)c2ccccc12)c1ccc(Br)cc1 (configuration not stated)	inconclusive: 70.8 µM [inhibitor, partial curve, poor fit]	–
O=C1NC(=S)SC1=C1CCCC1	inconclusive: 70.8 µM [inhibitor, single point]	–
N=C(N)SCc1nc2ccccc2c(=O)n1-c1ccccc1	inconclusive: 79.4 µM [inhibitor, single point]	–
CCOC(=O)c1ccc(NC(=S)NCCCn2ccnc2)cc1	inconclusive: 56.2 µM [inhibitor, partial curve, poor fit]	–
CC(=O)c1ccc(OCCCCCCCOc2ccc(C(C)=O)cc2)cc1	inconclusive: 79.4 µM [inhibitor, partial curve]	–
Cc1ccc2c(c1)CCCN2C(=O)c1cnn2c1NC(=C1CC1)C=C2C(F)F	–	inactive: 4.41%
NC(=O)c1c(NC(=O)CSc2nnc(-c3ccccc3)n2CC2CCCO2)sc2c1CCC2 (configuration not stated)	inconclusive: 50.1 µM [inhibitor, partial curve, poor fit]	–
N=c1c2c(n(Cc3ccc(Cl)cc3)c3c1CCC3)CCC2	–	inactive: 21.4% [at 57.1 µM]
O=C(N/N=C/C1=Cc2ccccc2OC1)c1ccncc1	inconclusive: 35.5 µM [inhibitor, single point]	–
Cc1ccc(S(=O)(=O)c2nc(S(C)(=O)=O)sc2N(C)C)cc1	inconclusive: 22.4 µM [inhibitor, single point]	–
CN1/C(=C\C(=S)NC(=O)c2ccccc2Cl)C(C)(C)c2ccccc21	inconclusive: 79.4 µM [inhibitor, single point]	–
CCOc1cc(/C=N/Nc2cccc(C(=O)O)c2)ccc1OC(=O)c1ccccc1	–	inactive: -4.16% [at 57.1 µM]
CCOC(=O)c1c(-c2ccc(C)o2)csc1NC(=S)NC(=O)c1ccc(F)cc1	inconclusive: 15.8 µM [inhibitor, partial curve]	–
CCCSCCCNC(=O)c1cc2n(n1)CCCN(Cc1ccc(C)cc1)C2=O	–	inactive: 9.4% [at 57.1 µM]
CCCC(O)(CCN1CCOCC1)c1ccc(Br)cc1 (configuration not stated)	active: 35.5 µM	–
O=C(C1CCCO1)N1CCN(Cc2nc3ccccc3c(=O)[nH]2)CC1 (configuration not stated)	inconclusive: 25.1 µM [inhibitor, partial curve, poor fit]	–
O=C(Nc1ccccc1Cl)N1CCN(c2ccccn2)CC1	–	inactive: 11.2%
CNCC(O)COc1ccccc1 (configuration not stated)	active: 70.8 µM	–
CCCNC(=O)c1ccc2nc(-c3ccccc3)c(-c3ccccc3)nc2c1	inconclusive: 3.98 µM [inhibitor, single point]	–
COc1cc(/C=C(\C#N)C(=O)Nc2cccc3ncccc23)cc(OC)c1OC	inconclusive: 79.4 µM [inhibitor, single point]	–
CS(=O)(=O)N1CCN(c2ccccc2NC(=O)c2ccc3c(c2)OCCO3)CC1	–	inactive: 16%
Cc1cccc(CSc2nc3cccnc3n2Cc2ccc(C(=O)NCc3ccco3)cc2)c1	inconclusive: 31.6 µM [inhibitor, full curve]	–
Cc1ccc(NC(=S)NCCc2ccccc2)c(C)c1	–	inactive: -14.8%

Compound	Potency	activity change, negative = inhibition
COc1cc2ccc(=O)oc2c(O)c1O	inconclusive: 89.1 µM [inhibitor, partial curve, poor fit]	–
O=[N+]([O-])c1ccc(Cl)c(C2Nc3cccc4cccc(c34)N2)c1	inconclusive: 89.1 µM [inhibitor, single point]	–
C/C(=N\Nc1nc(-c2ccc(C)cc2C)cs1)c1cc2ccccc2oc1=O	inconclusive: 70.8 µM [inhibitor, partial curve]	–
Cc1[nH]c2ccc(CNS(=O)(=O)c3ccc(S(=O)(=O)N4CCOCC4)cc3)cc2c1C	inconclusive: 56.2 µM [inhibitor, partial curve, poor fit]	–
CC(C)Oc1ccc(Br)cc1/C=N\NC(N)=S	inconclusive: 44.7 µM [inhibitor, partial curve]	–
CCc1nnc(NC(=S)Nc2ccccc2)s1	inconclusive: 15.8 µM [inhibitor, full curve]	–
O=C(NNC(=S)Nc1ccc(Cl)cc1)c1cccs1	inconclusive: 12.6 µM [inhibitor, partial curve, poor fit]	–
O=C(c1ccco1)N1CCN(C(=S)Nc2ccc(Br)cc2Cl)CC1	inconclusive: 56.2 µM [inhibitor, partial curve]	–
Cc1ccc(C2C(C#N)=C(N)N(c3cccnc3)C3=C2C(=O)CCC3)s1 (configuration not stated)	inconclusive: 50.1 µM [inhibitor, partial curve]	–
CCNc1sc(C(=O)c2cccs2)c(N)c1-c1nc2ccccc2s1	–	inactive: -30.4%
Cn1c(=O)c2c(nc(NCCO)n2CCCc2ccccc2)n(C)c1=O	–	inactive: 7.42%
CC(Cl)C(=O)NC(=O)NC12CC3CC(CC(C3)C1)C2 (configuration not stated)	–	inactive: -15.7%
CC(C)C[C@H](NC(=O)c1nc[nH]c1C(=O)NCC(=O)OCc1ccccc1)C(=O)OC(C)(C)C	–	inactive: 13.6% [at 57.1 µM]
Cc1ccc(NC(=O)/C=C/c2ccco2)cc1S(=O)(=O)N1CCCCCC1	inconclusive: 56.2 µM [inhibitor, partial curve, poor fit]	–
Cc1n[nH]c(=O)c2c(NC(=O)CSc3nn(-c4ccc(F)cc4)c(=S)s3)oc(C)c12	inconclusive: 50.1 µM [inhibitor, partial curve]	–
CCC1Nc2ncnc(N3CCOCC3)c2N(Cc2ccccc2)C1=O (configuration not stated)	–	inactive: -3.7% [at 57.1 µM]
O=C1C(=O)N(Cc2cccnc2)C(c2cccc([N+](=O)[O-])c2)/C1=C(/O)c1ccc2c(c1)OCO2 (configuration not stated)	inconclusive: 79.4 µM [inhibitor, single point]	–
CCCCCNS(=O)(=O)c1ccc(N2CCCCS2(=O)=O)cc1	–	inactive: -0.656% [at 57.1 µM]
COc1cccc(OC)c1C(=O)NCC12CC3CC(C1)CC(CNC(=O)c1c(OC)cccc1OC)(C3)C2	–	inactive: 20.4%
N#CC1(NC(=O)Cn2ncc(Cl)c(Cl)c2=O)CCCCC1	active: 5.01 µM	–
CC(C)Sc1nc(N2CCOCC2)c2c3c(sc2n1)COC(C)(C)C3	–	inactive: -5.93%
O=c1c2c([N+](=O)[O-])cc([N+](=O)[O-])cc2sn1Cc1ccccc1	inconclusive: 35.5 µM [inhibitor, full curve]	–
Cc1cccc(CS(=O)(=O)Cc2ccc(C(=O)NC(C)c3ccccc3)o2)c1 (configuration not stated)	inactive	–
O=C(CN(c1ccc(Cl)cc1)S(=O)(=O)c1ccccc1)N/N=C/c1ccco1	inconclusive: 56.2 µM [inhibitor, partial curve, poor fit]	–
